# Source: patent US4514573A, “Isoprenylamine derivatives” (priority 1981, dated 1985)
# System: influenza virus (PR-8)
# Assay: animal or person
# Settings: unidentified influenza virus, in Mus musculus, ip, 504 h, read-out: Prevention from influenza infection (Survival rate %)
row,Structure (SMILES),responders at 50 mg/kg
1,CC(C)=CCCC(C)=CCCC(C)=CCCC(C)=CCCC(C)=CCCC(C)=CCCC(C)=CCCC(C)=CCCC(C)=CCCC(C)=CCNc1ccc(C(=O)O)c(O)c1 [drawing 45],50%
2,CC(C)=CCCC(C)=CCCC(C)=CCCC(C)=CCCC(C)=CCCC(C)=CCCC(C)=CCCC(C)=CCCC(C)=CCCC(C)=CCNCc1ccc(Cl)cc1 [drawing 49],60%
3,COc1ccc(CNCC=C(C)CCC=C(C)CCC=C(C)CCC=C(C)CCC=C(C)CCC=C(C)CCC=C(C)CCC=C(C)CCC=C(C)C)cc1OC [drawing 55],70%
4,CC(C)=CCCC(C)=CCCC(C)=CCCC(C)=CCCC(C)=CCCC(C)=CCCC(C)=CCCC(C)=CCCC(C)=CCCC(C)=CCNCCc1ccc(N)cc1 [drawing 51],30%
5,CC(C)=CCCC(C)=CCCC(C)=CCCC(C)=CCCC(C)=CCCC(C)=CCCC(C)=CCCC(C)=CCCC(C)=CCCC(C)=CCNCc1ccc([N+](=O)[O-])cc1 [drawing 46],40%
6,COc1ccc(CNCC=C(C)CCC=C(C)CCC=C(C)CCC=C(C)CCC=C(C)CCC=C(C)CCC=C(C)CCC=C(C)CCC=C(C)CCC=C(C)C)cc1 [drawing 54],10%
7,COc1cccc(CNCC=C(C)CCC=C(C)CCC=C(C)CCC=C(C)CCC=C(C)CCC=C(C)CCC=C(C)CCC=C(C)CCC=C(C)CCC=C(C)C)c1OC [drawing 57],30%
8,CC(C)=CCCC(C)=CCCC(C)=CCCC(C)=CCCC(C)=CCCC(C)=CCCC(C)=CCCC(C)=CCCC(C)=CCCC(C)=CCNCc1cccc2ccccc12 [drawing 47],50%
9,CC(C)=CCCC(C)=CCCC(C)=CCCC(C)=CCCC(C)=CCCC(C)=CCCC(C)=CCCC(C)=CCCC(C)=CCCC(C)=CCNCc1ccc(C)cc1 [drawing 48],55%
10,CC(C)=CCCC(C)=CCCC(C)=CCCC(C)=CCCC(C)=CCCC(C)=CCCC(C)=CCCC(C)=CCCC(C)=CCCC(C)=CCNCc1cccc(CN)c1 [drawing 56],60%
11,COc1ccc(CNCC=C(C)CCC=C(C)CCC=C(C)CCC=C(C)CCC=C(C)CCC=C(C)CCC=C(C)CCC=C(C)CCC=C(C)CCC=C(C)C)cc1OC [drawing 50],70%
12,COc1ccc(CCNCC=C(C)CCC=C(C)CCC=C(C)CCC=C(C)CCC=C(C)CCC=C(C)CCC=C(C)CCC=C(C)CCC=C(C)CCC=C(C)C)cc1OC [drawing 52],30%
13,COc1cc(CNCC=C(C)CCC=C(C)CCC=C(C)CCC=C(C)CCC=C(C)CCC=C(C)CCC=C(C)CCC=C(C)CCC=C(C)CCC=C(C)C)ccc1O [drawing 53],60%
